In general, IC50 refers to the concentration at which inhibition is half-maximal.

Consider 1 compound from patent US20030120073A1, “Alpha-ketocarboxylic acid based inhibitors of phosphoryl tyrosine phosphatases” (priority 2001, published 2003).

The target in one experiment is T1, PTP1B (Homo sapiens, UniProt P18031).
T1 construct: purchased Calbiochem
T1 sequence (P18031 1-435): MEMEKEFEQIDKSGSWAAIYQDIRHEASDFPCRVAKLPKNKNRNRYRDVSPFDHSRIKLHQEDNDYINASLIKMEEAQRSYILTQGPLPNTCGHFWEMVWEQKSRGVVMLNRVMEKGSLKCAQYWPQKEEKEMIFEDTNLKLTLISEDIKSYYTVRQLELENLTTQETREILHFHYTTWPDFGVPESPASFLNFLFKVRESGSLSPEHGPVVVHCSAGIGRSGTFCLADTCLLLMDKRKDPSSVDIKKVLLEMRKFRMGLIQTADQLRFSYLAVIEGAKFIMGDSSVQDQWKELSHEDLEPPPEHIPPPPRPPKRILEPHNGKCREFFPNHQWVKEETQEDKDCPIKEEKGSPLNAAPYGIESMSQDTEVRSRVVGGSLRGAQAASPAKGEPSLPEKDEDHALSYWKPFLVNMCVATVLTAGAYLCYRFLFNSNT
Kind of experiment: PTP1B assay (p-NPP hydrolysis, UV at 420 nm). Type of experiment: biochemical. Conditions: Table 2; average of two measurements; 1.2 mM p-NPP, pH 5.5, 10% DMSO. As for the experimental part: PTP1B Assay: PTP1B (purchased from Calbiochem) was assayed usingp-NPP as the substrate and the reaction progress was monitored by UV spectroscopy. Initial rates were determined by monitoring the hydrolysis of p-NPP at 420 nm, from 10 to 120 s after mixing. Assay solutions contained 1.2 mM substrate, 1 mM EDTA, 100 mM NaCl, and 100 mM acetate at pH 5.5, and 10% DMSO. IC50 values were calculated using a Dixon analysis. Data analysis was performed with the commercial graphing package Grafit (Erithacus Software Ltd.).

In the next experiment the target is T2, LAR PTPase (Homo sapiens, UniProt P10586).
T2 construct: purchased Calbiochem
T2 sequence (P10586 1301-1639 limits assumed): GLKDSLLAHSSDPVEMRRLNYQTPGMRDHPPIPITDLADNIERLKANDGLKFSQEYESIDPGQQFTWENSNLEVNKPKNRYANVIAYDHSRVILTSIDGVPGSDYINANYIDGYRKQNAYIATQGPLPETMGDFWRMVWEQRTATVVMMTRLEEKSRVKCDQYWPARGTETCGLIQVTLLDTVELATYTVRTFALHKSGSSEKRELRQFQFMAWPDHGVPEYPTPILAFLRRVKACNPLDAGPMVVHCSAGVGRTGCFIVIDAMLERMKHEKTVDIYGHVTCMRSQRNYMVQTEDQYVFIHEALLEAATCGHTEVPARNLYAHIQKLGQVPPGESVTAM
Kind of experiment: LAR PTPase assay (p-NPP hydrolysis, UV at 420 nm). Conditions: Table 2; average of two measurements; 2.5 mM p-NPP, pH 5.5, 10% DMSO. As for the experimental part: Yersinia and LAR PTPase Assays: The phosphatase activities of the Yersinia and LAR PTPases (purchased from Calbiochem) were assayed using p-NPP as the substrate and the reaction progress was monitored by UV spectroscopy. Initial rates were determined by monitoring the hydrolysis of p-NPP at 420 nm, from 10 to 120 s after mixing. Assay solutions contained 2.5 mM substrate, 1 mM EDTA, 100 mM NaCl, 100 mM acetate at pH 5.5, and 10% DMSO. IC50 values were calculated using a Dixon analysis. Data analysis was performed with the commercial graphing package Grafit (Erithacus Software Ltd.).

Take `O=C(O)C(=O)c1ccc(O)cc1` [Compound 27]: the IC50 at PTP1B was 250 ± 30 µM; at LAR PTPase it was 540 ± 80 µM.
